Test results reported in PubChem BioAssay AID1508623 (National Center for Advancing Translational Sciences (NCATS), 2021).
In all, about 48,000 compounds went through this assay and about 450 (0.94%) were called active. The shares of active, inactive and inconclusive entries below differ from those in the screen. Calls follow the shape of the dose curve; as a rule, active = well fitted inhibition curve with a large enough effect; inconclusive = small, poorly fitted or top-dose-only effect; inactive = no such curve, though single readings can be large or run the other way. Potencies beside an inconclusive call are fits to weak or partial responses and may not hold up.

Experiment: Primary qHTS for Identification of Small Molecule Inhibitors of Huntingtin Promoter Activity; also: nearly all actives have a fitted effect of over 50% in size
Details: HEK293 HTT promoter firefly luciferase reporter (activity 0% = vehicle and -100% = no light), 24 h; series mostly up to 57.5 µM
Method in brief: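 HEK293 cells carrying firefly luciferase reporters were seeded at 2,500 per well in Opti-MEM and cultured for 24 h. They were then treated with compounds at up to 57.5 uM final for 24 h at 37 degrees C before Dual-Glo luminescence readout.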
Potency is read from the fitted curve at half-maximal effect; tags tell the direction and shape of the fitted curve.

Row | Compound | Potency
1 | O=C(CN(c1cccc(Br)c1)S(=O)(=O)c1ccccc1)N1CCc2ccccc2C1 | inconclusive: 25.1 µM [inhibitor, partial curve]
2 | COc1ccc(-c2ccc(NS(=O)(=O)c3ccc(F)c(C(F)(F)F)c3)cc2)nn1 | inconclusive: 20 µM [inhibitor, partial curve, poor fit]
3 | COC(=O)c1c(NC(=O)CCCOc2ccc(C)cc2)sc2c1C(C(=O)OC)CC2 (centres undefined) | inactive
4 | COc1cccc(OCc2nc3ccccc3n2CCOc2ccccc2)c1 | inconclusive: 39.8 µM [inhibitor, single point]
5 | CC(C)C[C@H](NC(=O)[C@H](CCc1ccccc1)NC(=O)CN1CCOCC1)C(=O)N[C@@H](Cc1ccccc1)C(=O)N[C@@H](CC(C)C)C(=O)[C@@]1(C)CO1 | inconclusive: 0.243 µM [inhibitor, full curve]
6 | Cn1nc(-c2ccc(OCC(=O)Nc3ccccc3)cc2)c2ccccc2c1=O | inconclusive: 31.6 µM [inhibitor, single point]
7 | O=C(Cn1c(=O)nc(-c2ccccc2)c2cc(Cl)ccc21)NCc1ccccc1 | inconclusive: 10 µM [inhibitor, partial curve, poor fit]
8 | Cc1c(Cl)cccc1Nc1sc(C(=O)c2ccccc2)c(N)c1S(=O)(=O)c1ccccc1 | inactive
9 | CCCCOc1cccc(C(=O)Nc2cc3nn(-c4ccc(F)cc4)nc3cc2C)c1 | inactive
10 | CC(C)(CC(=O)OCC(=O)Nc1ccc(F)c(Cl)c1)CC1=NS(=O)(=O)c2ccccc2N1 | inconclusive: 17.8 µM [inhibitor, partial curve]
11 | COc1cc(NC(=O)c2cc3c(=O)oc4ccc(C)cc4c3s2)cc(OC)c1OC | inactive
12 | O=C(CSc1nccn1-c1ccc(Cl)cc1)Nc1nc2ccccc2s1 | inconclusive: 39.8 µM [inhibitor, single point]
13 | COc1cc2nc(SCc3cccc(Cl)c3)n3nc(CCn4nc(C)cc4C)nc3c2cc1OC | inactive
14 | CCOc1ccc(-c2cc(OC(=O)c3ccccc3)c3c(C)oc(C)c3c(=O)c2)cc1 | inconclusive: 22.4 µM [inhibitor, single point]
15 | Cc1ccc(NC(=O)N(Cc2cn(C)c3ccccc23)C2CCCCC2)cc1C | inactive
16 | O=C(CSc1nc2ccccc2n1Cc1ccccc1F)NCc1ccccc1 | inconclusive: 35.5 µM [inhibitor, single point]
17 | CCCCNC(=O)CSc1nc2cc3c(cc2c(=O)n1CCCCCC(=O)NCc1ccc2c(c1)OCO2)OCO3 | inactive
18 | COc1cc2c(cc1OC)C(COc1ccc(F)cc1)N(C(=O)Cc1ccc(F)cc1)CC2 (centres undefined) | inconclusive: 25.1 µM [inhibitor, partial curve, poor fit]
19 | CCCS(=O)(=O)c1ncc(Cl)c(C(=O)Nc2scc(-c3ccccc3)c2C(=O)OCC)n1 | inconclusive: 39.8 µM [inhibitor, single point]
20 | COc1cccc(-c2cc(C(=O)Nc3cc(OC)c(OC)c(OC)c3)on2)c1 | inconclusive: 10 µM [inhibitor, partial curve]

Row | Compound | Potency
21 | COc1ccc(-c2nc(Cn3c(SCc4ccc(C)cc4)nc4cccnc43)c(C)o2)cc1OC | inconclusive: 25.1 µM [inhibitor, single point]
22 | O=C(CCCn1c(=O)c2cccn2c2cccnc21)NCc1ccc(F)cc1 | inactive
23 | CCN1CCN(c2ccc(NS(=O)(=O)c3c(C)nc4sccn4c3=O)cc2Cl)CC1 | active: 15.8 µM
24 | COc1ccc(C(=O)CC2(O)C(=O)N(Cc3ccccc3Cl)c3ccccc32)cc1 (centres undefined) | inconclusive: 31.6 µM [inhibitor, single point]
25 | COc1ccc(-c2nnc(SCC(=O)Nc3ccc(Cl)cc3)s2)cc1 | inconclusive: 15.8 µM [inhibitor, partial curve, poor fit]
26 | Cc1cccc(CC2C(=O)Nc3ccccc32)c1 (centres undefined) | inconclusive: 28.2 µM [inhibitor, partial curve, poor fit]
27 | CCOC(=O)c1c(NC(=O)c2ccc(S(=O)(=O)N(CCOC)CCOC)cc2)sc2c1CC(C)(C)NC2(C)C | inactive
28 | COc1ccc(S(=O)(=O)N(CCc2ccccc2)CC(=O)Nc2cccc(OC)c2)cc1 | inconclusive: 20 µM [inhibitor, single point]
29 | CCOc1ccc(C2c3cc(OCC)c(OCC)cc3CC(=O)N2c2ccc(C(=O)O)cc2)cc1OCC (centres undefined) | inactive
30 | Cc1nc2ccc(S(=O)(=O)N(C)CC(=O)Nc3ccc(Br)c(C)c3)cc2s1 | inconclusive: 31.6 µM [inhibitor, single point]
31 | CCOC(=O)N1CCc2c(sc3c2c(=O)n(CCc2ccccc2)c(=O)n3Cc2ccc(F)cc2)C1 | inconclusive: 17.8 µM [inhibitor, partial curve, poor fit]
32 | Cc1ccccc1-c1nn2c(=O)cc(CN3CCN(C(=O)c4ccc(C(C)(C)C)cc4)CC3)nc2s1 | inconclusive: 8.91 µM [inhibitor, partial curve, poor fit]
33 | Cc1c(Cl)cccc1NC(=O)CN1C(=O)COc2ccc(S(=O)(=O)Nc3ccccc3)cc21 | inconclusive: 39.8 µM [inhibitor, single point]
34 | COc1cc(NC(=O)CSc2nc3nc(C)c(Cc4ccc(C)cc4)c(C)n3n2)cc(OC)c1 | inconclusive: 31.6 µM [inhibitor, partial curve, poor fit]
35 | Cc1ccc(CNC(=O)c2cc3sccc3n2Cc2ccc(F)cc2)cc1 | inactive
36 | CC(=O)c1ccc(NS(=O)(=O)c2ccc3[nH]c4c(c3c2)CCCCCC4)cc1 | inconclusive: 25.1 µM [inhibitor, partial curve, poor fit]
37 | Cc1nc2cc(-c3cccc(F)c3)nn2c(C)c1CCC(=O)NC1CCCCC1 | active: 1.26 µM
38 | COc1ccc(-c2nn(C)c3sc(C(=O)N4CCN(c5cc(Cl)ccc5C)CC4)cc23)cc1OC | inconclusive: 14.1 µM [inhibitor, partial curve, poor fit]
39 | COc1ccc(OC)c(CNc2ncnc3onc(-c4ccc(Cl)cc4)c23)c1 | inconclusive: 15.8 µM [inhibitor, partial curve, poor fit]
